Test results: PMC4336329 (PLoS ONE, 2015)
Out of some 310,000 compounds screened, about 2,200 (0.71%) showed an effect of 50% or more. The effect is printed as a negative number. This is one part of the list.

target: human ether-à-go-go-related gene (hERG) potassium channel (human, UniProt Q12809); test: primary screen, population patch clamp on CHO cells stably expressing hERG
Sequence (Q12809 whole entry, looked up): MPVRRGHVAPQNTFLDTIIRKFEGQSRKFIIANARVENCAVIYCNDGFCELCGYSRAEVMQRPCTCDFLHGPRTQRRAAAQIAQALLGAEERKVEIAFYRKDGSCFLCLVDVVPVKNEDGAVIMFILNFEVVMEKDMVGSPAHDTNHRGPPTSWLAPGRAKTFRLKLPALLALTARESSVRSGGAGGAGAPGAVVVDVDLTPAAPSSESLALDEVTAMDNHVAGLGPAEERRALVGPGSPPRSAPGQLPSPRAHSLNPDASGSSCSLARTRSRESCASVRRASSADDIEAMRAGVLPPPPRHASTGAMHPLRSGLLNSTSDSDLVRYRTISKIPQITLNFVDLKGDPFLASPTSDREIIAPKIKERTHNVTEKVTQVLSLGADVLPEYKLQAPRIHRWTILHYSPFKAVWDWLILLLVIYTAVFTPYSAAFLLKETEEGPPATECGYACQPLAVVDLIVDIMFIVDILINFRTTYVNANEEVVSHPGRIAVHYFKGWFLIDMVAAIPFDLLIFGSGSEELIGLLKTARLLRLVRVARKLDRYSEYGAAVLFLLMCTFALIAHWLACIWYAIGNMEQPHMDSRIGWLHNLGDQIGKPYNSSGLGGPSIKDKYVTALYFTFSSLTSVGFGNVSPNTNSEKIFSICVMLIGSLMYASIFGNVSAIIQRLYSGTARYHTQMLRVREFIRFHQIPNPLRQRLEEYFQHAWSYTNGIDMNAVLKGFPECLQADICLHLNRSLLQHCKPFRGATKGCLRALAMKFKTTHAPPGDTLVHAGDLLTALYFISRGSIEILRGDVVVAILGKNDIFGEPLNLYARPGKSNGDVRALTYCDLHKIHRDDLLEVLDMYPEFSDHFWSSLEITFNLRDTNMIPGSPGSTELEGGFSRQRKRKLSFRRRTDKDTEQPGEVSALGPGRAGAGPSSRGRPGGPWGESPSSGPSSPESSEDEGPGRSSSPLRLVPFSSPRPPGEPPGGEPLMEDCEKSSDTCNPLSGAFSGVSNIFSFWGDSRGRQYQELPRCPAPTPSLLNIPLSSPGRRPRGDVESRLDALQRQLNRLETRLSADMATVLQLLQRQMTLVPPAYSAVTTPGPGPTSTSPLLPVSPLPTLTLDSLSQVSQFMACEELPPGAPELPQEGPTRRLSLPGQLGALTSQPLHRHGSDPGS

For CC(=O)Nc1ccc(N(C(=O)c2ccco2)C(C(=O)NC2CCCC2)c2cccs2)cc1 (stereo not shown), which “hERG current change (%, negative = inhibition) at 1uM” value is on record?
Its value is 17%.

Which “hERG current change (%, negative = inhibition) at 1uM” value does the source give for Cc1cccc(C)c1Nc1nnc(SCc2nc3ccccc3s2)s1 here?
The value was 1.36%.

For COc1ccc(CNC(=S)N/N=C/c2ccc(O)c(OC)c2)cc1, which “hERG current change (%, negative = inhibition) at 1uM” value is on record?
Its value is 8.03%.

Which “hERG current change (%, negative = inhibition) at 1uM” value does the source give for Cc1cc(C)n2nc(SCc3ccc(F)cc3Cl)nc2n1 here?
The value was 12%.

How did the “hERG current change (%, negative = inhibition) at 1uM” value turn out when Cn1c(Cc2ccc3c(c2)OCO3)nnc1SCC(=O)NC(C)(C)C was run?
Its value is 26.5%.

Which “hERG current change (%, negative = inhibition) at 1uM” value does the source give for O=C(CC1C(=O)NCCN1Cc1ccc(-c2ccccc2)cc1)NCCc1ccccn1 (stereo not shown) here?
Its value is 16.5%.

How did the “hERG current change (%, negative = inhibition) at 1uM” value turn out when Cc1ccc(-c2csc(NC(=O)c3cccc(N4C(=O)CCC4=O)c3)n2)o1 was run?
Its value is 8.76%.

With CCc1cccc2c(C(=O)COC(=O)/C=C/c3ccc(O)c(OC)c3)c[nH]c12 as the molecule, how does the “hERG current change (%, negative = inhibition) at 1uM” value read?
The value was 5.93%.

O=C(CNC(=O)c1ccc(Cl)cc1Cl)OCCCn1c(=O)[nH]c2ccccc21 was tested. Which “hERG current change (%, negative = inhibition) at 1uM” value did it give?
Its value is 12.5%.

Which “hERG current change (%, negative = inhibition) at 1uM” value does the source give for COc1ccc(C(Nc2ccc(S(=O)(=O)N3CCOCC3)cc2)C(=O)NCCC(C)C)cc1OC (stereo not shown) here?
Its value is 8.44%.

For CCOc1c(N2CC(C)OC(C)C2)c(=O)c1=O (stereo not shown), which “hERG current change (%, negative = inhibition) at 1uM” value is on record?
Its value is 10.4%.

CC1CC(C)CN(C(=O)C2CCCN(c3ncnc4c3nc3n4CCCCC3)C2)C1 (stereo not shown) was tested. Which “hERG current change (%, negative = inhibition) at 1uM” value did it give?
Its value is -1.13%.

How did the “hERG current change (%, negative = inhibition) at 1uM” value turn out when Cc1ccc(S(=O)(=O)N2CCN(C(=O)CN3CCCCC3)C2)cc1 was run?
Its value is 5.17%.

O=C(O)Cn1nnc(-c2cccs2)n1 was tested. Which “hERG current change (%, negative = inhibition) at 1uM” value did it give?
Its value is 6.29%.

Which “hERG current change (%, negative = inhibition) at 1uM” value does the source give for O=C(CCc1ccc(S(=O)(=O)N2CCOCC2)cc1)Oc1ccccc1 here?
The value was 3.71%.

How did the “hERG current change (%, negative = inhibition) at 1uM” value turn out when COc1ccc(C(=O)N2CCN(CCNC(=O)C(=O)Nc3ccc(F)cc3)CC2)cc1 was run?
Its value is -44.9%.

For NC(=O)c1ccsc1NC(=O)C1CCCCC1, which “hERG current change (%, negative = inhibition) at 1uM” value is on record?
Its value is 4.81%.

For c1ccc(C[C@H]2CN=C(Nc3ccccc3)N2CCC2CCCC2)cc1, which “hERG current change (%, negative = inhibition) at 1uM” value is on record?
Its value is -17.5%.

How did the “hERG current change (%, negative = inhibition) at 1uM” value turn out when C/C(=N\N=C1\NC(=O)C(Cc2ccccc2)S1)c1ccccc1 (stereo not shown) was run?
The value was 15.6%.

Which “hERG current change (%, negative = inhibition) at 1uM” value does the source give for CCOc1ccc(NC(=O)CSc2nnc(N)s2)c([N+](=O)[O-])c1 here?
The value was -4.47%.

With Fc1cc2[nH]c(=S)[nH]c2cc1Cl as the molecule, how does the “hERG current change (%, negative = inhibition) at 1uM” value read?
Its value is 11.5%.

How did the “hERG current change (%, negative = inhibition) at 1uM” value turn out when C[C@@H]1CN(Cc2cn(C)nc2-c2cccc(Cl)c2)C[C@H](C)O1 was run?
Its value is 10.2%.

Which “hERG current change (%, negative = inhibition) at 1uM” value does the source give for CN(C)C(=O)CSc1ncccc1-c1nc2ccccc2[nH]1 here?
The value was 11.8%.

O=C(OCCN=C1NS(=O)(=O)c2ccccc21)c1ccccc1 was tested. Which “hERG current change (%, negative = inhibition) at 1uM” value did it give?
The value was -12.2%.

With CC(=O)Nc1cccc(NC(=O)COc2ccc3c(c2)OCO3)c1 as the molecule, how does the “hERG current change (%, negative = inhibition) at 1uM” value read?
The value was 10.8%.
